# Data reported in the RNAGym collection of RNA variant scans (doi:10.1093/nar/gkz1192).
# Read counts are not given, so values of variants with three or more changes are uncertain.
# B1: CPEB3 Ribozyme (parent)
# chain: UAACAGGGGGCCACAGCAGAAGCGUUCACGUCGCAGCCCCUGUCAGAUUCUGGUGAAUCUGCGAAUUCUGCUGUAUAUCUC
# Variants of: B1
# Assay: self-cleavage, relative activity (ratio to wild type); higher = more cleavage; in vitro, sequencing
# Procedure, shortened: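 After error-prone PCR and barcoding, CPEB3 ribozyme mutant libraries were transcribed with T7 RNA polymerase at 37°C for 5 hours, then given 15 min with DNase I before an EDTA stop, and they cleaved during both steps. Reverse transcription with template switching preceded Illumina sequencing. Relative activity divides a variant's cleaved/total read fraction by the unmutated ribozyme's. At least 5 reads were required per variant, and three batches were averaged.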
row,Variant,self-cleavage
1,CAACAGGGGGCCACAGCAGAAGCGUUCACGUUGCAGCCCCUGUCAGAUACUGGUGAGUCUGCGAAUUCUGCUGUAUAUCUC,0.12
2,CAACAGGGGGCCACAGCAGAAGCGUUCACGUCGGAGCCCCUGUCAGAUUCUGGUGAAUCUGCGAAUUCAGCUGUACAUCUC,0.06
3,CAACAGGGGGCCACAGCAGAAGCGUUCACGUCGCAGACCCUGUCGGAUUCUGGUGAAUCAGCGAAUUCUGCUGUAUAUCUC,0.23
4,CAACAGGGGGCCACAGCAGAAGCGUUCACGUCGCAGGCCCUGUCCGAUUCCGGUGAAUCUGCGAAAUCUGCUGUAUAUCUC,0.07
5,CAACAGGGGGCCACAGCAGAAGCGUUCACGUCGCAGGCCAUUUCAGAUUCUGGUGAAUCUGCGAAUUCUGCUGUAUAUCUC,0.28
6,CAACAGGGGGCCACAGCAGAAGCGUUCACGUCGCAGUCCCUGUCAGAUUCUGGUGAAUCUGCGAGUUCUGAUGUAUGUCUC,0.09
7,CAACAGGGGGCCACAGCAGAAGCGUUCACGUCGCAGCACCUGUCAGAUUCUGGCGAAUCCGCGAAUUCUGCUGUAUAUCCC,0.24
8,CAACAGGGGGCCACAGCAGAAGCGUUCACGUCGCAGCACCUGUCAGAUUCUGGUGAAUCUGCGAACACUGCUGUAUAUCUC,0.25
9,CAACAGGGGGCCACAGCAGAAGCGUUCACGUCGCAGCUCCUGUCAGAUCCUGGUGAAUCUGCGAAUUCUGCUGUAUAUCUC,0.49
10,CAACAGGGGGCCACAGCAGAAGCGUUCACGUCGCAGCUCCUGUCAGAUUCUGGUGAAUCUGCGAAUACUGCUGUAUAUCUC,0.3
11,CAACAGGGGGCCACAGCAGAAGCGUUCACGUCGCAGCUCCUGUCAGAUUCUGGUGAAUCUGCGAAUUCUGCCGUAUAUCUC,1.1
12,CAACAGGGGGCCACAGCAGAAGCGUUCACGUCGCAGCCUCUGUCAAAUUCUGGUGAAUCUGCGGAUUCCGCUGUAUAUCUC,0.13
13,CAACAGGGGGCCACAGCAGAAGCGUUCACGUCGCAGCCUCUGUCAGAUUCUGGUGAAUCUGCGAAUUCAGCUGUAUAUCUC,0.37
14,CAACAGGGGGCCACAGCAGAAGCGUUCACGUCGCAGCCCUUGUCAGAUUCUGGUGAAUCUGCGAAUUCUGCCGUAUAUCCC,0.82
15,CAACAGGGGGCCACAGCAGAAGCGUUCACGUCGCAGCCCCUGUAAGAUUCUGGAGAAUCCGCGAAUUCUGCUGUAUAUCUC,0.33
16,CAACAGGGGGCCACAGCAGAAGCGUUCACGUCGCAGCCCCUGUAAGAUUCUGGUGAAUCUGCGAAUUCCGCUGUACAUCUC,0.07
17,CAACAGGGGGCCACAGCAGAAGCGUUCACGUCGCAGCCCCUGUUAGAUUCUGGUGAACCUGCGAAUUCUGCUGUAUAUCUC,0.47
18,CAACAGGGGGCCACAGCAGAAGCGUUCACGUCGCAGCCCCUGUCAGAUUAUGGUGAAUCUGCGAAUUCUGCCGUAUAUCUC,1.01
19,CAACAGGGGGCCACAGCAGAAGCGUUCACGUCGCAGCCCCUGUCAGAUUAUGGUGAAUCUGCGAAUUCUGCUGUAUAUCCC,0.85
20,CAACAGGGGGCCACAGCAGAAGCGUUCACGUCGCAGCCCCUGUCAGAUUCUGGUGAAUCUGAGAACUCUGCUGUAUAUCUC,0.25
21,CAACAGGGGGCCACAGCAGAAGCGUUCACGUCGCAGCCCCUGUCAGAUUCUGGUGAAUCUGCGAAUUCUGGCGUAUAUCUC,0.15
22,CAACAAGGGGCCGCAGCAGAGCCGUUCACGUCGCAGCCCCUGUCAGAUUCUGGCGAAUCUGCGAAUUCUGCUGUAUAUCUC,0.02
23,CAACAAGGGGCCUCACCAGAAGCGUUCACGUCGUAGCCCCAGUCAGAUUCUGGUGAAUCUGCGAAUUCUGCUGUAUAUCCC,0.03

row,Variant,self-cleavage
1,CAACAAGGGGCCACAGCAGAUGCGUUCACGUCGCAGCCCCUGUCAGAUUCUGGUGAAUCUGCGAAUUCUGUUGUAUAUCUC,0.05
2,CAACAAGGGGCCACAGCAGAAGCGUUCGCGUCGAUGCCCCUGUCAGAUUCAGGUGAAUCUGCGAAUUCUGCUGUAUAUCUC,0.24
3,CAACAAGGGGCCACAGCAGAAGCGUUCACGUCGCAGCCCCUGUCAGGUUCUGGUGAACCUGCGAAUUCUGCUGUGUAUCUC,0.07
4,CAACAAGGGGGCACAGCAGAAGCGUUCACGUCGCAGCCCCAGUCAGAUUCUGGUGAAUCUGCGAAUUCUGCUGUAAAACUC,0.08
5,CAACAAGGGGCCACAGCAGAAGCGUUCACGUCGUAGCCCCUGUCAGAUCCUGGUGAAUCUGCGAAUUCUGCAGUAUAUCUC,0.06
6,CAACAAGGGGCCACAGCAGAAGCGUUCACGUCGCAGCCUCUGUCAGAUUCUGGUGAAUCUGCGAAUUCUGCUGUAUAUCUC,0.53
7,CAACAAGGGGCCACAGCAGAAGCGUUCACGUCGCAGCCUCUGUCAGACUCUGGUGAAUCUGCGAAUUCUGCUGUAUAUCUC,0.26
8,CAACAAGGGGCCACAGCAGAAGCGCUCACGUCGCAGCCCCAGUCGGAUUCUGGUGAAUCAGCGAGUUCUGCUGUAUAUCUC,0.05
9,CAACAAGGGGCCACAGCAGAAGCGUUCACGUCGCAGCCCCUGUCAGAAUCUGGGGAAUCUGCGAAUUCCGCUGUAUAUCUC,0.17
10,CAACACGGGGCCACAGCAGAAGCGUUCACGCAGCGGCCCCUGUCAGAUUCUGGUGAAUCUGCGAGUUCUGCUGUAUAUCUC,0.05
11,CAACAUGGUGCCACAGCAGAAGCGAUCACGCCGCAGCCCCUGUCAGAGUCUGGUGAAUCUGCGAAUUCUGCUGUAUAUCUC,0.04
12,CAACAUGGGGCCACAGCAGAAGCGUUCACGUCGCAGCCCCUGUCAGAUUCUGGUGAAACUGCGAACUCUGCUGUAUAUCCC,0.06
13,CAACAGAGGGCCACAGCAGAAGCGUUCGCGUCGCAGCCCCAGUCAGGUUCUGGUGAAUCUGCGAAUUCUGCUGUAUAUCCC,0.04
14,CAACAGAGGGCCACAGCAGAAGCGUUCACGUCGCAGCCCCUGUCAGAUUCUGGUGAAUCUGCGAAUUCUGCUGUAUGUCUC,0.23
15,CAACAGAGGGCCACAGCAGAAGCGUUCACGUCGCAGCCCCUGUCAGAUUCUGGUGAAUCUGCGAAUUCUGCCGUAUAUCUC,0.35
16,CAACAGCGGGCCUCAGCAGAAGCGUUCACGUCGCAGCCCCUGACAGAUUCUGGUGAAUCUGCGAAUUCUGACGUAUAUCUC,0.15
17,CAACAGCGGGCCACAGCAGAAGCGUUCACGUCGCGGCCCCUGUCAGAUUCUGGUGAAUCUGCGAAUUCUGCUGUAUAUCUC,0.45
18,CAACAGCGGGCCACAGCAGAAGCGUUCACGUCGCAGCCCCUGUCAGAUUCUGGUGGAUCUGCGAAUUCUGCUGUAUAUCUC,0.06
19,CAACAGCGGGCCACAGCAGAAGCGUUCACGUCGCAGCCCCUGCCAGAUUCUGGUGAAUCUGCGAAUUCUGCUGUAUAUCUC,0.34
20,CAACAGUGGGCCACUGCAGAAGCGUUCACGUCGCAGCCCCUGUCAGAUUCUGGUGAAUCUGCGAAUUCUGCUGUAUAUCUC,0.34
21,CAACAGUGGGCCACAGCAGAAGGGUUCACGUCGCAGCCCCUGUCAGAUUCAGGUGAAUCUGCGGAUUCUGCAGUAUAUCUC,0.09
22,CAACAGGAGGCCACUGCAGAAGCGCUCACGUCGCAGCCACUGUCAGAUUCUGGUGAGUCCGCGAAUUCUGCUGUAUAUCUC,0.03
23,CAACAGGAGGCCACAGCGGAAGCGUUCACGUCGCUGCCCCUGUCAGAUUCUGGUGAACCUGCGAAUUCUGCUGUAUAUCUC,0.21

row,Variant,self-cleavage
1,CAACAGGAGGCCACAGCGGAAGCGUUCACGUCGCAGCCCCUGUCAGAUUCUGGUGAAUCUGCUAAUUCUGCUGUAUAUCCC,0.06
2,CAACAGGAGGCCACAGCAGGAGCGUUCACGUCGCAGCCCCUGUCAGAUUCUGGUGAGUCUGCGAAUUCCGCUGUAUAUCUC,0.09
3,CAACAGGAGGCCACAGCAGUAGCGUUCACGUCGCAGCCCCUGUCAGAUUCUGGUGAAUCUGCGAAUUCUGCUGUAUAUCUC,0.08
4,CAACAGGAGGCCACAGCAGAGGCGUUCACGUCGCAGCCCCUGUCAGAUUCUGGUGAAUCAGCGAAUCCUGCUGUAUACCUC,0.11
5,CAACAGGAGGCCACAGCAGAAGCGUUAACGUCGCAGCCCCUGUCAGAUCCUGGUGAAUCUGCGAAUUCUGCUGAAUAUCUC,0.11
6,CAACAGGAGGCCACAGCAGAAGCGUUCACGCCGCAGCCCCAGUCAGAUUCUGGUGAAUCUGCGAAUGCUGCUGUAUAUCUC,0.22
7,CAACAGGAGGCCACAGCAGAAGCGUUCACGUCGCAGCCCCUGUCAGAUUCUGGCGAAUCUGCGAAUUCUGCUGUAUAUCUC,0.06
8,CAACAGGAGGCCACAGCAGAAGCGUUCACGUCGCAGCCCCUGUCAGAUUCUGGUGAAUCUGCGAAUUCUGCCGCAUAUCUC,0.45
9,CAACAGGAGGCCACAGCAGAAGCGUUCACGUCGCAGCCCCUGUCAGAUUCUGGUGAAUCUGCGAAUUCUGCUGUAUACCUC,0.32
10,CAACAGGCGGCCACAGCGGAGGCGUUCACGUCGCAGCCCCCGUCAGAUUCUGGUGAAUCCGCGAAUUCUGCUGUAUAUCCC,0.04
11,CAACAGGCGGCCAUAGCAGAAGCGUUCACGUCGCAGCCCCUGUCAGAUUCUGGUGAAUCUGCGAAUUCCGCAGUAUAUCUC,0.05
12,CAACAGGCAGCCACAGCAGAAGCGUUCACGUCGCAGCCCCAGUCAGAUUCUGGUGAAUCUGCGAAUUCUGCUGUAUAUCUC,0.06
13,CAACAGGUGGCCACAGCAGGAGCGUUCGCGUCGCAGCCCCUGCCAGAUUCUGGUGAAUCCGCGAAUUCUGCUGUAUAUCUC,0.06
14,CAACAGGUGGCCACAGCAGUAGCGUUCACGUCGCAACCCCUGUCAGAUUCUGGUGAGUCUGCGAAUUCCGCUGUAUAUCUC,0.04
15,CAACAGGUGGCCACAGCAGAGGCGUUCACGUCGCAGCCCCUGUCAGAUUCUGGUAAACCUGCGAAUUCUGCUGUAUAUCUC,0.03
16,CAACAGGUGGGCACAGCAGAAGCGUUCACGUCGCGGCCCCUGUCAGACUCUGGUGAAUCUGCGAAUUCUGCUGUAUAUCCC,0.05
17,CAACAGGUGGCCACAGCAGAAGUGUUCACGUCGCAGCCCCUGUCUGACACUGGUGAAUCUGCGAAUCCUGCUGUAUAUCUC,0.05
18,CAACAGGUGGCCACAGCAGAAGCGCUCACGUCGCAGCCCCUGUCCGAUUCUGGUGGAUCAGCGAAUUCUGCUGUAUAUCUC,0.17
19,CAACAGGGUGCCACAGCGGAAGCGUUCACGUCGCAGCCCCUGUCAGGUCCUGGUGAAUCUGCGAAUUCUGCUGUAUCUCUC,0.04
20,CAACAGGGUGCCACAGCAGCAGCGUUCACGUCGCGGCCCCUGUCAGAUUCUGGUGAAUCUGCCAAUUCUGCUGUACAUCUC,0.04
21,CAACAGGGUGCUACAGCAGAAGCGUUCACGUCGCAGCCCCUGUCAGAUUCUGGUGAAUCAGCGAAUUCUGCUGUAUAUCUC,0.05
22,CAACAGGGUGCCACAGCAGAAGCGUUCACGUCGCAGCCUCAGUCAGAUUCAGGUGAAUCAGCGAAUUCUGCUGUAUAUCUC,0.15
